# According to PubChem BioAssay AID1508623 (National Center for Advancing Translational Sciences (NCATS), 2021):
# In all, about 48,000 compounds went through this assay and about 450 (0.94%) were called active. Inconclusive results (about 19%) are left out. Calls come from the whole dose curve; as a rule, active = well fitted inhibition curve with a large enough effect; inconclusive = small, poorly fitted or top-dose-only effect; inactive = no such curve, though single readings can be large or run the other way. This is one part of the list.
# Test: Primary qHTS for Identification of Small Molecule Inhibitors of Huntingtin Promoter Activity; note: nearly all actives have a fitted effect of over 50% in size
# Conditions: HEK293 HTT promoter firefly luciferase reporter (activity 0% = vehicle and -100% = no light), 24 h; series mostly up to 57.5 µM; activity change, negative = inhibition: at the top concentration
# Outline: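 Quantitative HTS used concentration series of up to 57.5 uM final on HEK293 luciferase reporter cells, 24 h at 37 degrees C. Readout was Dual-Glo firefly luminescence.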
# Potency is the fitted concentration of half-maximal effect.
SMILES,"activity change, negative = inhibition",Potency
O=C(Nc1cccc(Cl)c1)c1cc2c(=O)[nH]c3ccccc3c2s1,inactive: -2.71%,–
Cc1cccc(-c2nc3c4ccccc4nc(N4CCN(c5cc(C)ccc5C)CC4)n3n2)c1,inactive: -2.17%,–
CC1(C)CCC2=C(O1)c1ccccc1C(=O)C2=O,inactive: -16.3%,–
O=C(Nc1ccc(-c2cn3cccnc3n2)cc1)c1cc(Br)ccc1Cl,inactive: -1.64%,–
Cc1nnc(N2CCCC(C(=O)NCCc3ccc(Cl)cc3)C2)c2nn(-c3ccccc3)c(C)c12 (stereo unspecified),inactive: -22.8%,–
CCOc1ccc(-c2nn(CC(=O)NC3CCCC3)c3c2cnc2ccc(F)cc23)cc1,inactive: 40.7%,–
CC(=O)OCC[N+](C)(C)C,inactive: 10.1%,–
CC(C)CCNC(=O)CN1N=C(c2ccc(Cl)cc2)CCC1=O,inactive: -11.8%,–
COc1ccc(CN2C(=O)c3ccccc3C2C(=O)NCCc2ccccc2)c(OC)c1 (stereo unspecified),inactive: 8.32%,–
CC1=C(C(=O)Nc2ccc(C)cc2C)C(c2cccs2)n2nc(SCc3ccccc3Cl)nc2N1 (stereo unspecified),inactive: -2.25%,–
C[C@H](c1ccc(F)cc1CCCC(=O)O)N(c1cc(F)ccc1F)S(=O)(=O)c1ccc(Cl)cc1,inactive: -25.3%,–
O=c1cc(-c2ccccc2)n2c(SCc3ccc(F)cc3)nnc2[nH]1,inactive: -8.04%,–
Cc1cn2c(=O)cc(COC(=O)COc3ccccc3C)nc2s1,inactive: -4.96%,–
CCN(Cc1ccccc1)C(=O)Cn1c(=O)n(-c2ccc(C)c(C)c2)c(=O)c2c(C)c(C)sc21,inactive: -37.4%,–
O=c1oc2ccccc2cc1-c1cn2cc(Cc3ccc(Cl)cc3)sc2n1,inactive: -15.1%,–
O=C(Nc1cccc(C(F)(F)F)c1)c1cc2ccc3cccnc3c2[nH]1,inactive: -2.78%,–
Cc1ccc(-c2nc(C)c(CCNS(=O)(=O)c3ccc(F)c(C(F)(F)F)c3)s2)cc1,inactive: -15.1%,–
CCn1cc(C(=O)N2CCN(c3ccccc3F)CC2)c(=O)c2cc(S(=O)(=O)N(C)C)ccc21,inactive: -4.31%,–
Cc1ccc(NC(=O)CSc2nc(-c3ccco3)cc(C(F)(F)F)n2)cc1,inactive: -27.9%,–
Cc1ccc(NC(=O)CN2C(=O)CCSc3ccc(S(=O)(=O)N4CCCC4)cc32)cc1C,inactive: -29.7%,–
Cc1ccc(C)c(OC(=O)CSc2nnc(CNC(=O)c3ccccc3)o2)c1,inactive: 2.49%,–
Cc1cc2oc(C(=O)Nc3ccc(S(=O)(=O)N4CCCCCC4)cc3)cc(=O)c2cc1C,inactive: -17%,–
CCN(CC)c1ccc(NS(=O)(=O)c2cc3[nH]c(=O)c(=O)[nH]c3cc2C)c(C)c1,inactive: 6.72%,–
CC(C)c1ccc(OC(=O)c2cc(-c3ccccc3)on2)cc1,inactive: 1.42%,–

SMILES,"activity change, negative = inhibition",Potency
CCN(CC)c1ccc(NC(=O)CSc2nc(-c3cccs3)cc(C(F)(F)F)n2)cc1,inactive: 5.04%,–
Cc1ccc(NC(=O)Nc2nnc(N(C)Cc3ccccc3)s2)c(C)c1,inactive: -1.93%,–
CC(=O)N1CCc2c(sc3nc(SCC(C)C)n(-c4ccc(F)c(Cl)c4)c(=O)c23)C1,inactive: -16.4%,–
CCCSc1ncc(Cl)c(C(=O)Nc2c(C(=O)Nc3ccc(C)cc3)oc3ccccc23)n1,inactive: -9.63%,–
COC(=O)c1ccc(C2C(C(=O)Nc3ccccc3)=C(C)Nc3nc4ccccc4n32)cc1 (stereo unspecified),inactive: 1.65%,–
CCc1nc(Oc2cccc(F)c2)c2oc3ccccc3c2n1,inactive: -4.51%,–
CCN(CC)c1ccc(-c2nc(-c3ccccc3C)no2)cc1[N+](=O)[O-],inactive: -17.7%,–
Cc1ccc(Nc2nc(C)nc(N)c2S(=O)(=O)c2ccccc2)cc1,inactive: -6.65%,–
CC1=C(C(=O)Nc2ccccc2)C(c2cccn2C)n2ncnc2N1 (stereo unspecified),inactive: -5.61%,–
COc1ccc(Cn2c(=O)c3oc4ccccc4c3n(CC(=O)Nc3ccc(F)cc3F)c2=O)cc1,inactive: 5.36%,–
Cc1ccc(Cl)cc1N1CCN(Cc2nnc(-c3ccc4c(c3)OCO4)o2)CC1,inactive: -32.2%,–
Cc1cc(NC(=O)C2CCN(S(=O)(=O)c3ccc(Br)s3)CC2)ccc1Br,inactive: -2.73%,–
Cc1ccc(CNC(=O)CSc2n[nH]c(-c3ccc(F)cc3)n2)cc1,inactive: -27.8%,–
O=S(=O)(c1ccc2nc(N3CCN(c4cccc(Cl)c4)CC3)ccc2c1)N1CCCCC1,inactive: -10.6%,–
Cc1ccc2c(=O)cc(C(=O)Nc3sc4c(c3C(=O)NCc3cccnc3)CCCC4)oc2c1C,inactive: -3.92%,–
Fc1ccc(-c2noc3ncnc(NCCCN4CCN(c5ccccc5)CC4)c23)cc1,inactive: -15.6%,–
O=c1oc2c(CN3CCN(CCO)CC3)c(O)ccc2cc1-c1ccccc1,inactive: -18.3%,–
COc1cccc(NC(=O)CC2NCCNC2=O)c1 (stereo unspecified),inactive: 3.57%,–
COc1ccc(C(=O)NCC(c2ccc(N(C)C)cc2)N2CCc3ccccc32)c(OC)c1 (stereo unspecified),inactive: -17.2%,–
COc1ccc(S(=O)(=O)NCC(c2ccco2)N2CCOCC2)cc1OC (stereo unspecified),inactive: 1.97%,–
CCc1cc(C(=O)Nc2cnn(Cc3ccccc3C)c2)no1,inactive: 42.6%,–
Cc1ccc(NC(=O)CCc2c(C)nc3cc(-c4ccccc4)nn3c2C)cc1F,–,active: 2000 nM
COc1ccc(-c2nc3c(C#N)c[nH]n3c2NC2CCCC2)c(OC)c1,inactive: -22.7%,–
CCCCCNC(=O)CCCCCn1c(=O)[nH]c2ccsc2c1=O,inactive: 4.86%,–

SMILES,"activity change, negative = inhibition",Potency
COc1ccc(CNC(=O)C2CCN(c3nc4ccccc4[nH]3)CC2)cc1OC,inactive: 2.86%,–
O=C(Nc1sc2c(c1C(=O)NCC1CCCO1)CCC2)c1cc(=O)c2ccccc2o1 (stereo unspecified),inactive: -20.6%,–
CCOC(=O)c1c(S(=O)(=O)N2CCCC(C(=O)Nc3cccc(C)n3)C2)c(C)n(C)c1C (stereo unspecified),inactive: -8.33%,–
OCCN1C[C@H](O)[C@@H](O)[C@H](O)[C@H]1CO,inactive: 7.39%,–
CCOc1ccc(C2CC(=O)Nc3c2c(=O)nc(SCc2ccccc2C)n3C)cc1OC (stereo unspecified),inactive: -17%,–
CCn1cc(C(=O)OCC(=O)Nc2cccc(C(C)=O)c2)c(=O)c2ccc(C)nc21,inactive: -13.3%,–
COc1ccc(Cn2c(=O)c3oc4ccccc4c3n(Cc3ccc(Cl)cc3)c2=O)cc1,inactive: -4.71%,–
CCOC(=O)c1c(C)[nH]c(C)c1S(=O)(=O)N1CCCC(C(=O)N2CCN(c3ccccc3)CC2)C1 (stereo unspecified),inactive: -11.1%,–
CCOCCc1nn2c(=O)cc(COC(=O)C3CCCCC3)nc2s1,inactive: -3.66%,–
Cc1ccc2c(=O)cc(C(=O)Nc3cccc(C(F)(F)F)c3)oc2c1C,inactive: -0.938% [at 11.5 µM],–
Cc1cccn2c(=O)c3cc(C(=O)NC(C)c4ccccc4)c(=N)n(CCCO)c3nc12 (stereo unspecified),inactive: -5.62%,–
Cc1ccc(NC(=O)CSc2nnc3scc(-c4ccccc4)n23)cc1,inactive: -17.4%,–
COC(=O)c1ccc(OCC2c3cc(OC)c(OC)cc3CCN2C(=O)c2ccc(F)cc2)cc1 (stereo unspecified),inactive: -28.6%,–
CCOc1ccc(CN2CCc3nc(Nc4ccc(OC)cc4OC)ncc3C2)cc1,inactive: -19.4%,–
Cc1c(CCOc2ccc(C(=O)O)cc2)c2cc(Cl)ccc2n1C(c1ccccc1)c1ccccc1,inactive: -3.35%,–
COc1ccc2c(c1)c1c(c(=O)n(CCc3ccccc3)c(=O)n1Cc1ccc(F)cc1)n2C,inactive: -19.8%,–
CCN(CC)CCCNC(=O)c1nn(C)c2c1CS(=O)(=O)c1ccccc1-2,inactive: -13.2%,–
Cc1ccccc1Cn1c(CN2CCC(C(=O)NCCc3ccccc3)CC2)cc2ccccc21,inactive: -8.08%,–
CCC(=O)Nc1cccc(C(=O)OCc2cc(=O)n3nc(CC)sc3n2)c1,inactive: 7.67%,–
Cc1ccc2sc(NC(=O)c3ccc4c(c3)OCCO4)nc2c1C,inactive: -5.37%,–
COc1ccc2c(c1)c1c(c(=O)n(-c3ccc(F)c(Cl)c3)c(=O)n1Cc1ccccc1C)n2C,inactive: -2.28%,–
CCN(CC)c1nc2ccccc2nc1C(=O)Nc1cccc(C(C)=O)c1,inactive: -24.5%,–
CCSC1=NC2(CCN(C(=O)NC3CCCCC3)CC2)N=C1c1ccc(Cl)cc1,inactive: -14.1%,–
CCN1C(=O)c2ccccc2Sc2ccc(NC(=O)c3ccc(Cl)cc3)cc21,inactive: -15.2% [at 11.5 µM],–

SMILES,"activity change, negative = inhibition",Potency
Cc1oc2ncn(C)c(=O)c2c1C(=O)N1CCN(c2ccccc2F)CC1,inactive: -12%,–
CCc1nn(Cc2ccc(Cl)cc2)c(=O)c2cc3cc(C)ccc3n12,inactive: -8.28%,–
Cc1cccc(NS(=O)(=O)c2ccc3c(c2)C(C)(C)C(=O)N3C)c1,inactive: -23.3%,–
CS(=O)(=O)N(Cc1ccco1)CC(O)Cn1c2ccccc2c2ccccc21 (stereo unspecified),inactive: -10.8%,–
CCOC(=O)N1CCc2c(sc(NCc3cc(OC)c(OC)cc3OC)c2C(=O)Nc2ccc(OCC)cc2)C1,inactive: -16.1%,–
CCc1ccc(-n2c(=O)c3cccnc3n2CC(=O)Nc2cc(F)ccc2F)cc1,inactive: -23.5%,–
CCN(CC)C(=O)Cn1cc(SCC(=O)Nc2ccccc2C)c2ccccc21,inactive: -12.1%,–
CCN1CCN(c2ncc3c(n2)CCN(Cc2ccc(OC(C)C)cc2)C3)CC1,inactive: -20.5%,–
Cc1cccc(-c2nc(SCCCOc3ccc(Cl)c(C)c3)n3[nH]c(=O)cc3n2)c1,inactive: -24.8%,–
CC(O)CCCCn1c(=O)c2c(ncn2C)n(C)c1=O (stereo unspecified),inactive: 1.05%,–
CCOC(=O)c1ccc(-c2ccc(/C=C(\C#N)C(=O)Nc3ccc(OCC)cc3)o2)cc1,inactive: 29.7%,–
COc1ccc(Cl)cc1-n1nnc(-c2nsc(NC(=O)c3ccccc3Cl)n2)c1C,inactive: -8.07%,–
Cc1ccc(NC(=O)C2CCC(CNS(=O)(=O)c3csc(C(N)=O)c3)CC2)cc1Cl (stereo unspecified),inactive: -23%,–
CCCSc1nc2sc3c(c2c(=O)n1Cc1ccccc1)CC(C)(CC)OC3 (stereo unspecified),inactive: -8.86%,–
COC(=O)c1nnn(-c2cccc(C)c2)c1C(=O)OC,inactive: 4.74%,–
CCOC(=O)c1c(S(=O)(=O)NCC(=O)Nc2cc(C)ccc2C)c(C)n(C)c1C,inactive: -10.2%,–
CCc1nn(Cc2cc(C)ccc2C)c(=O)c2cc3cc(C)ccc3n12,inactive: -0.333%,–
CCc1nn2c(=O)cc(COC(=O)c3ccco3)nc2s1,inactive: -10.2%,–
Cc1ccc(-c2cn3c(n2)sc2cc(C(=O)NC(C)C45CC6CC(CC(C6)C4)C5)ccc23)cc1 (stereo unspecified),inactive: 28.1%,–
COc1ccc(N2CCN(C(=O)c3cc4c(s3)-c3ccccc3OC4)CC2)cc1,inactive: 1.79%,–
COc1ccc(N2CC(NC(=O)c3ccc(Br)o3)CC2=O)cc1 (stereo unspecified),inactive: 3.51%,–
O=C(Cn1ncc2c([nH]c3ccccc32)c1=O)NCC1CCN(Cc2ccc(F)cc2)CC1,inactive: -7.46%,–
CCOc1ccccc1CNC(=O)C1CCN(S(=O)(=O)c2ccc3c(ccn3C)c2)CC1,inactive: -1.1%,–
Cc1cc(Cl)ccc1NC(=O)CN(c1ccccc1Br)S(C)(=O)=O,inactive: -19.1% [at 11.5 µM],–
